Source: patent US6172038A, “Antipathogenic peptides and compositions comprising them” (priority 1996, dated 2001)
Part of at least one peptide drawing is inferred or uncertain, most often the ends.

Legend:
Escherichia coli D21 = assay: Antibacterial activity (MIC), growth inhibition in 96-well plates; assay type: cell-based; settings: 100% inhibition of growth after 18-20 h at 37° C.
Bacillus megaterium Bm11 = assay: as above; assay type: cell-based; settings: 100% inhibition of growth after 18-20 h at 37° C.
[1] = test system: Bacillus subtilis ATCC 6051; assay: as above; assay type: cell-based; settings: 100% inhibition of growth after 18-20 h at 37° C.
[2] = CD spectroscopy, fractional helicity; assay type: physicochemical; settings: CD in 40% TFE
[3] = test system: Micrococcus luteus ATCC 9341; assay: Antibacterial activity (MIC), growth inhibition in 96-well plates; assay type: cell-based; settings: 100% inhibition of growth after 18-20 h at 37° C.
[4] = test system: Acinetobacter calcoaceticus Ac11; assay: as above; assay type: cell-based; settings: 100% inhibition of growth after 18-20 h at 37° C.

Row | Structure (SMILES) | Minimal Inhibitory Concentration E. coli (D21) (Escherichia coli D21) [µM] | Minimal Inhibitory Concentration B. megaterium (Bm11) (Bacillus megaterium Bm11) [µM] | Minimal Inhibitory Concentration B. subtilis (ATCC 6051) [1] [µM] | α-helix content [2] [%] | Minimal Inhibitory Concentration M. luteus (ATCC 9341) [3] [µM] | Minimal Inhibitory Concentration A. calcoaceticus (Ac11) [4] [µM]
1 | CC[C@H](C)[C@H](NC(=O)[C@H](CCCCN)NC(=O)[C@@H]1CCCN1C(=O)[C@@H](NC(=O)[C@H](CC(C)C)NC(=O)[C@H](C)NC(=O)[C@H](Cc1ccccc1)NC(=O)[C@H](Cc1ccccc1)NC(=O)CN)[C@@H](C)CC)C(=O)N[C@H](C(=O)N[C@@H](CO)C(=O)N[C@@H](CO)C(=O)N1CCC[C@@H]1C(=O)N[C@@H](CC(C)C)C(=O)N[C@@H](Cc1ccccc1)C(=O)N[C@@H](CCCCN)C(=O)N[C@H](C(=O)N[C@@H](CC(C)C)C(=O)N[C@@H](CC(C)C)C(=O)N[C@@H](CO)C(=O)N[C@@H](C)C(=O)N[C@H](C(=O)NCC(=O)N[C@@H](CO)C(=O)N[C@@H](C)C(=O)N[C@@H](CC(C)C)C(=O)N[C@@H](CO)C(=O)N[C@@H](CO)C(=O)N[C@@H](CO)C(=O)NCC(=O)NCC(=O)N[C@@H](CCC(N)=O)C(=O)N[C@@H](CCC(=O)NCCN)C(=O)NCCN)C(C)C)[C@@H](C)O)[C@@H](C)CC [Peptide 9, [D]P^13 -TApar] | 3 | 1.5 | – | – | – | –
2 | CC[C@H](C)[C@H](NC(=O)[C@H](CCCCN)NC(=O)[C@@H]1CCCN1C(=O)[C@@H](NC(=O)[C@@H](CC(C)C)NC(=O)[C@H](C)NC(=O)[C@H](Cc1ccccc1)NC(=O)[C@H](Cc1ccccc1)NC(=O)CN)[C@@H](C)CC)C(=O)N[C@H](C(=O)N[C@@H](CO)C(=O)N[C@@H](CO)C(=O)N1CCC[C@H]1C(=O)N[C@@H](CC(C)C)C(=O)N[C@@H](Cc1ccccc1)C(=O)N[C@@H](CCCCN)C(=O)N[C@H](C(=O)N[C@@H](CC(C)C)C(=O)N[C@H](CC(C)C)C(=O)N[C@@H](CO)C(=O)N[C@@H](C)C(=O)N[C@H](C(=O)NCC(=O)N[C@@H](CO)C(=O)N[C@@H](C)C(=O)N[C@@H](CC(C)C)C(=O)N[C@@H](CO)C(=O)N[C@@H](CO)C(=O)N[C@@H](CO)C(=O)NCC(=O)NCC(=O)N[C@@H](CCC(N)=O)C(=O)N[C@@H](CCC(=O)NCCN)C(=O)NCCN)C(C)C)[C@@H](C)O)[C@@H](C)CC [Peptide 10, [D]L^5 L^19 -TApar] | 3 | 1.3 | – | – | – | –
3 | CC[C@H](C)[C@H](NC(=O)[C@H](CCCCN)NC(=O)[C@H]1CCCN1C(=O)[C@@H](NC(=O)[C@H](CC(C)C)NC(=O)[C@H](C)NC(=O)[C@H](Cc1ccccc1)NC(=O)[C@H](Cc1ccccc1)NC(=O)CN)[C@@H](C)CC)C(=O)N[C@H](C(=O)N[C@@H](CO)C(=O)N[C@@H](CO)C(=O)N1CCC[C@H]1C(=O)N[C@@H](CC(C)C)C(=O)N[C@@H](Cc1ccccc1)C(=O)N[C@@H](CCCCN)C(=O)N[C@H](C(=O)N[C@@H](CC(C)C)C(=O)N[C@H](CC(C)C)C(=O)N[C@@H](CO)C(=O)N[C@@H](C)C(=O)N[C@H](C(=O)NCC(=O)N[C@@H](CO)C(=O)N[C@@H](C)C(=O)N[C@@H](CC(C)C)C(=O)N[C@@H](CO)C(=O)N[C@@H](CO)C(=O)N[C@@H](CO)C(=O)NCC(=O)NCC(=O)N[C@@H](CCC(N)=O)C(=O)N[C@@H](CCC(=O)NCCN)C(=O)NCCN)C(C)C)[C@@H](C)O)[C@@H](C)CC [Peptide 11, [D]P^7 L^19 -TApar] | 3 | 1.5 | – | – | – | –
4 | CC[C@H](C)[C@H](NC(=O)[C@H](CCCCN)NC(=O)[C@H]1CCCN1C(=O)[C@@H](NC(=O)[C@H](CC(C)C)NC(=O)[C@H](C)NC(=O)[C@H](Cc1ccccc1)NC(=O)[C@H](Cc1ccccc1)NC(=O)CN)[C@@H](C)CC)C(=O)N[C@H](C(=O)N[C@@H](CO)C(=O)N[C@@H](CO)C(=O)N1CCC[C@H]1C(=O)N[C@@H](CC(C)C)C(=O)N[C@@H](Cc1ccccc1)C(=O)N[C@@H](CCCCN)C(=O)N[C@H](C(=O)N[C@@H](CC(C)C)C(=O)N[C@@H](CC(C)C)C(=O)N[C@@H](CO)C(=O)N[C@@H](C)C(=O)N[C@H](C(=O)NCC(=O)N[C@@H](CO)C(=O)N[C@@H](C)C(=O)N[C@@H](CC(C)C)C(=O)N[C@@H](CO)C(=O)N[C@@H](CO)C(=O)N[C@@H](CO)C(=O)NCC(=O)NCC(=O)N[C@@H](CCC(N)=O)C(=O)N[C@@H](CCC(=O)NCCN)C(=O)NCCN)C(C)C)[C@@H](C)O)[C@@H](C)CC [Peptide 12, [D]P^7 -TApar] | 10 | 1.2 | 2 | 25 | 5 | 5
5 | CC[C@H](C)[C@H](NC(=O)[C@H](CCCCN)NC(=O)[C@H]1CCCN1C(=O)[C@@H](NC(=O)[C@H](CC(C)C)NC(=O)[C@H](C)NC(=O)[C@H](Cc1ccccc1)NC(=O)[C@H](Cc1ccccc1)NC(=O)CN)[C@@H](C)CC)C(=O)N[C@H](C(=O)N[C@@H](CO)C(=O)N[C@@H](CO)C(=O)N1CCC[C@H]1C(=O)N[C@@H](CC(C)C)C(=O)N[C@@H](Cc1ccccc1)C(=O)N[C@@H](CCCCN)C(=O)N[C@H](C(=O)N[C@@H](CC(C)C)C(=O)N[C@@H](CC(C)C)C(=O)N[C@@H](CO)C(=O)N[C@@H](C)C(=O)N[C@H](C(=O)NCCN)C(C)C)[C@@H](C)O)[C@@H](C)CC [Peptide 17, [D]P^7 [1-22]-TApar] | 10 | 1 | – | – | – | –
6 | CC[C@@H](C)[C@@H](NC(=O)[C@H](CC(C)C)NC(=O)[C@H](C)NC(=O)[C@@H]1CCCN1C(=O)[C@H](CC(C)C)NC(=O)CNC(=O)[C@@H](NC(=O)[C@@H](NC(=O)[C@H](CC(C)C)NC(=O)[C@H](NC(=O)[C@H](CCCCN)NC(=O)[C@H](CC(C)C)NC(=O)[C@H](NC(=O)[C@H](C)NC(=O)CNC(=O)[C@@H](NC(=O)CN)[C@@H](C)CC)C(C)C)C(C)C)[C@@H](C)O)[C@@H](C)O)C(=O)N[C@@H](CO)C(=O)N[C@@H](Cc1c[nH]c2ccccc12)C(=O)N[C@H](C(=O)N[C@H](CCCCN)C(=O)N[C@@H](CCCNC(=N)N)C(=O)NCCN)[C@@H](C)CC [Peptide 20] | 8 | 0.8 | – | – | 29 | 7
7 | CC[C@@H](C)[C@@H](NC(=O)[C@H](CC(C)C)NC(=O)[C@H](C)NC(=O)[C@@H]1CCCN1C(=O)[C@H](CC(C)C)NC(=O)CNC(=O)[C@@H](NC(=O)[C@@H](NC(=O)[C@H](CC(C)C)NC(=O)[C@H](NC(=O)[C@H](CCCCN)NC(=O)[C@H](CC(C)C)NC(=O)[C@H](NC(=O)[C@H](C)N)C(C)C)C(C)C)[C@@H](C)O)[C@@H](C)O)C(=O)N[C@@H](CO)C(=O)N[C@@H](Cc1c[nH]c2ccccc12)C(=O)N[C@H](C(=O)N[C@H](CCCCN)C(=O)N[C@@H](CCCNC(=N)N)C(=O)NCCN)[C@@H](C)CC [Peptide 21] | 21 | 1.2 | – | – | 28 | 14
8 | CC(C)C[C@H](NC(=O)[C@H](CC(C)C)NC(=O)[C@@H](CC(C)C)NC(=O)[C@H](N)CCCCN)C(=O)N[C@H](CCCCN)C(=O)N[C@H](CC(C)C)C(=O)N[C@H](CCCCN)C(=O)N[C@@H](CC(C)C)C(=O)N[C@H](CCCCN)C(=O)N[C@@H](CC(C)C)C(=O)N[C@H](CC(C)C)C(=O)N[C@H](CCCCN)C(N)=O [Peptide 27] | 7 | 0.2 | – | – | – | –
9 | CC[C@H](C)[C@@H]1NC(=O)[C@H](CCCCN)NC(=O)[C@H]2CCCN2C(=O)[C@H]([C@@H](C)CC)NC(=O)[C@H](CC(C)C)NC(=O)[C@H](C)NC(=O)[C@H](Cc2ccccc2)NC(=O)[C@H](Cc2ccccc2)NC(=O)CNC(=O)[C@H](CCCCN)NC(=O)[C@@H](N)CSSC[C@@H](C(=O)O)NC(=O)[C@H](C(C)C)NC(=O)[C@H](C)NC(=O)[C@H](CO)NC(=O)[C@@H](CC(C)C)NC(=O)[C@@H](CC(C)C)NC(=O)[C@H]([C@@H](C)O)NC(=O)[C@H](CCCCN)NC(=O)[C@H](Cc2ccccc2)NC(=O)[C@H](CC(C)C)NC(=O)[C@@H]2CCCN2C(=O)[C@H](CO)NC(=O)[C@H](CO)NC(=O)[C@H]([C@@H](C)CC)NC1=O [Peptide 86, Cyclic K^1 [D]P^7 L^18 L^19 [1-22]-par] | 30 | 10 | – | – | – | –
10 | CC[C@H](C)[C@@H]1NC(=O)[C@H](CCCCN)NC(=O)[C@H]2CCCN2C(=O)[C@H]([C@@H](C)CC)NC(=O)[C@H](CC(C)C)NC(=O)[C@H](C)NC(=O)[C@H](Cc2ccccc2)NC(=O)[C@H](Cc2ccccc2)NC(=O)CNC(=O)[C@H](CCCCN)NC(=O)[C@H](CCCCN)NC(=O)[C@@H](N)CSSC[C@@H](C(=O)O)NC(=O)[C@H](C(C)C)NC(=O)[C@H](C)NC(=O)[C@H](CO)NC(=O)[C@@H](CC(C)C)NC(=O)[C@@H](CC(C)C)NC(=O)[C@H]([C@@H](C)O)NC(=O)[C@H](CCCCN)NC(=O)[C@H](Cc2ccccc2)NC(=O)[C@H](CC(C)C)NC(=O)[C@@H]2CCCN2C(=O)[C@H](CO)NC(=O)[C@H](CO)NC(=O)[C@H]([C@@H](C)CC)NC1=O [Peptide 87, Cyclic K^1 K^2 [D]P^7 L^18 L^19 [1-22]-par] | 15 | 6 | – | – | – | –
11 | CC[C@H](C)[C@@H]1NC(=O)[C@H](CCCCN)NC(=O)[C@H]2CCCN2C(=O)[C@H]([C@@H](C)CC)NC(=O)[C@H](CC(C)C)NC(=O)[C@H](C)NC(=O)[C@H](Cc2ccccc2)NC(=O)[C@H](Cc2ccccc2)NC(=O)CNC(=O)[C@H](CCCCN)NC(=O)[C@H](CCCCN)NC(=O)[C@H](CCCCN)NC(=O)[C@@H](N)CSSC[C@@H](C(=O)O)NC(=O)[C@H](C(C)C)NC(=O)[C@H](C)NC(=O)[C@H](CO)NC(=O)[C@@H](CC(C)C)NC(=O)[C@@H](CC(C)C)NC(=O)[C@H]([C@@H](C)O)NC(=O)[C@H](CCCCN)NC(=O)[C@H](Cc2ccccc2)NC(=O)[C@H](CC(C)C)NC(=O)[C@@H]2CCCN2C(=O)[C@H](CO)NC(=O)[C@H](CO)NC(=O)[C@H]([C@@H](C)CC)NC1=O [Peptide 88, Cyclic K^1 K^2 K^3 [D]P^7 L^18 L^19 [1-22]-par] | 7.5 | 2 | – | – | – | –
